The full ranking holds about 33,000 sequences; the median of “E-score (-0.5 to 0.5)” is about -0.011, and the highest 2% start at about 0.28. The list shows a part of the results.

The assay deals with T1, Gcr1 (UniProt P07261).
T1 sequence: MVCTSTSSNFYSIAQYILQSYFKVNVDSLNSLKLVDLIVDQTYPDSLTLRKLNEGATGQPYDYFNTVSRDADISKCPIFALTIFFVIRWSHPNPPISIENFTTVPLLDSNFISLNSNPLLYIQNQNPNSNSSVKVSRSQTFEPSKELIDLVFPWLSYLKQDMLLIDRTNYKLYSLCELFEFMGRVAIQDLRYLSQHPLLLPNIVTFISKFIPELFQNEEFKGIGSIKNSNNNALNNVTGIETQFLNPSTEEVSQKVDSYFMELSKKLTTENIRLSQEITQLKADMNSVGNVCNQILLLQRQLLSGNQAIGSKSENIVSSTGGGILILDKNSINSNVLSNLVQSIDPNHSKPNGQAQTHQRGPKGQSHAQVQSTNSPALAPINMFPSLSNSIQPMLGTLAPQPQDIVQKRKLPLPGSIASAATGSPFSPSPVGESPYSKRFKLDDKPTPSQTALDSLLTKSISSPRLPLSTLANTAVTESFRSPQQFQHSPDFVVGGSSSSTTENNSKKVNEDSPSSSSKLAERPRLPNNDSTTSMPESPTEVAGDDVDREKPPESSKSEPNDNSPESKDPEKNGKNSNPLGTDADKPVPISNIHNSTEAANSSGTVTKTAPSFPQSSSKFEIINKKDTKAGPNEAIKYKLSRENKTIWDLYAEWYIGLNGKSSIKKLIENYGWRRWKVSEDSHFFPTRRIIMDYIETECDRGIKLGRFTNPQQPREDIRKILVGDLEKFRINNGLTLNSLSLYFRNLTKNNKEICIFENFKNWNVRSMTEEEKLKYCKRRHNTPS
Briefly: PBM E-score (8-mer binding enrichment) (E-score (-0.5 to 0.5)); higher = stronger / more preferred TF binding; most listed sequences are background and not binding sites. The following applies: protein concentration: 100 nM; construct: GST-full length. An outline of the steps:
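PURExpress in vitro transcription/translation supplied GST-tagged yeast transcription factors, either full-length or DNA-binding domain. Applied at about 100-200 nM to universal all-10-mer Agilent arrays double-stranded by primer extension, the bound protein was detected with fluorescent anti-GST. E-scores, modified Wilcoxon-Mann-Whitney statistics, were given by the Universal PBM Analysis Suite to ungapped eight-base words pooled with their reverse complements after masliner normalisation.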
Turning to CACTTCTA, the “PBM E-score” value was found to be 0.00557.
Under CCCGTGAG stands -0.163; under CCCGCAGG, -0.00212; under TAGTACAA, 0.0587.
Regarding AAAAGCCA, the “PBM E-score” value was -0.164.
Regarding GGATGGGA, the “PBM E-score” value is -0.104.
As to CATGGTAC, the “PBM E-score” value was -0.0196.
For the sequence GCTTGGTA, the “PBM E-score” value was -0.037.
With AGGTCCTA, the “PBM E-score” value was -0.0815.
Turning to ATCCTATG, the “PBM E-score” value was 0.0596.
Under AACGAGCA stands -0.127; under ATCTCCGG, -0.121; under ATTAATAA, 0.16.
To GCTCCAAA belongs 0.129; to CTACGCTA, -0.0939.
To AACGTCTC belongs -0.151; to AATAGTCA, 0.0349.
Take AGCAGGCC: the “PBM E-score” value is -0.185.
In the case of AATCATGG, the “PBM E-score” value is -0.0101.
To TGAGGGAA belongs -0.101; to ATTTAAGG, 0.172.
CTGTGAGC: the “PBM E-score” value is -0.061.
To ATCTCGAA belongs -0.0489.
To ATTTCTGG belongs 0.15; to GGAGGATA, -0.0608.
As for CTAGTCTC, the “PBM E-score” value was 0.0256.
Take CAACGCAC: the “PBM E-score” value was -0.152.
As to ATAATAGC, the “PBM E-score” value was 0.085.
Turning to CCCTACAC, the “PBM E-score” value was -0.164.
On to CGTCATCA, for which the “PBM E-score” value came to 0.0868.
As to AATGAGGT, the “PBM E-score” value is -0.024.
To TACACGTA belongs 0.228; to CAAGGAGC, -0.189.
For CCCACAAG, the “PBM E-score” value came out at 0.0598.
AAGGATCG: the “PBM E-score” value was -0.0479.
Take CCTGTTCA: the “PBM E-score” value was -0.00978.
Under AAATTTTC stands 0.0295; under CACTTAGC, -0.041; under ACTTGTGG, 0.182.
Consider ACCTATCC, for which the “PBM E-score” value amounted to 0.0168.
To CATGACTA belongs -0.0863.
On to AATTAATG, for which the “PBM E-score” value was -0.024.
Turning to TCGAGACA, the “PBM E-score” value was -0.00343.
For CCGGGGCC, the “PBM E-score” value turned out to be 0.165.
Under CCCCCCCC stands -0.268; under AGGTACTA, -0.094; under CAAACTTC, 0.0815.
With CCCTGGGC, the “PBM E-score” value is -0.166.
To TCGACTAA belongs 0.0376; to CCGTGTCA, -0.125.
Under CTGCTACA stands 0.0929.
On to CGCGGAGA, for which the “PBM E-score” value was 0.0066.
For the sequence ATTCCTGA, the “PBM E-score” value was 0.299.
AAATGACA: the “PBM E-score” value is -0.0546.
Under CACGGACC stands -0.112; under GTCCGATA, -0.00964; under TGTCGCAA, -0.124.
Under AACCCTAG stands -0.0645; under AGTATCCG, 0.247.
To ATATCCGA belongs 0.0833; to ACGGAGTC, -0.0283.
CCCCGGTA: the “PBM E-score” value is -0.0463.
Take CACCCCCC: the “PBM E-score” value is -0.285.
In the case of AAAACAGC, the “PBM E-score” value stood at 0.0413.
For ACACAGGA, the “PBM E-score” value is 0.0754.
In the case of GCATGAGC, the “PBM E-score” value is -0.229.
As for CGTCCAGC, the “PBM E-score” value is -0.0635.
Under ATTGTGGC stands 0.203.
To AAACGACC belongs -0.0697; to AAACCTCA, -0.0305.
Under GAGGACGC stands 0.289; under GAATGAGC, -0.26.
As to GAGCTGGC, the “PBM E-score” value is -0.138.
Regarding CCGTAGTC, the “PBM E-score” value is -0.103.
With AAATAAAT, the “PBM E-score” value is 0.0849.
To CATGTGCG belongs 0.0235.
As for GAGCTGTA, the “PBM E-score” value is -0.114.
As to GGCGGCAC, the “PBM E-score” value is -0.084.
Take CCCTGTTA: the “PBM E-score” value worked out at 0.182.
As to AGTGGTGG, the “PBM E-score” value came to 0.305.
Under CGTGCCAA stands -0.0428; under AGGGGCTA, -0.0337; under CGTCACTC, -0.111.
On to TCACGCAA, for which the “PBM E-score” value was -0.2.
For the sequence ATGGACTC, the “PBM E-score” value is 0.201.
Under ATTGTAAA stands 0.0287.

These data come from the supplement of paper PMC3334620.
